Data reported in PubChem BioAssay AID686978 (National Center for Advancing Translational Sciences (NCATS), 2013).
The whole screen tested about 420,000 compounds, of which about 64,000 (15%) were called active. Inconclusive means that the source gave no clear call. Such entries were picked first, then a sample of the others. The call rests on the fitted dose curve; in most records, active means well fitted inhibition curve with a large enough effect; inconclusive means small, poorly fitted or top-dose-only effect; inactive means flat fitted curve, though single readings scatter. No potency is given beside an inconclusive call; the fits are too rough.

Experiment: qHTS for Inhibitors of human tyrosyl-DNA phosphodiesterase 1 (TDP1): qHTS in cells in absence of CPT; further: nearly all actives have a fitted effect of over 55% in size
Conditions: DT40 Tdp1-/- hTDP1 cells, no CPT, ATP luminescence, 48 h; activity change, negative = growth inhibition: at 46.2 µM (top of the series) unless noted
In short: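 DT40 Tdp1-/-;hTDP1 cells, no CPT (DMSO vehicle only), 400 cells/well; compounds pin-transferred; ≥48 hr, 37 °C; CellTiter-Glo 30 min RT dark, luminescence read.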
On the % scale 0 is the no-effect control and ±100 the full control effect; potency means the concentration at half of the fitted maximal effect; tags describe the fitted curve by direction and shape.

SMILES | Potency | activity change, negative = growth inhibition
Cc1nn(C)cc1/C=N/NC(=O)CSc1ccccn1 | inactive | –
CC(=O)NC(c1ccc(F)c(F)c1)c1nc(-c2cnc3ccccc3c2)cs1 (configuration not stated) | inconclusive [inhibitor, partial curve] | –
CCOc1ccc2cc(C#N)c(SCC(=O)OCc3ccccc3)nc2c1 | inconclusive [inhibitor, partial curve] | –
CCOC(=O)c1sc(SC)c2c1CCC/C2=N/OC | inactive | –
O=C(CSc1cccc[n+]1[O-])Nc1c(Br)cc([N+](=O)[O-])cc1Br | inactive | –
COc1cc2c(cc1O)[C@@H]1Cc3cc(O)c(OC)cc3[C@H](C2)N1C | inconclusive [inhibitor, partial curve] | –
COc1ccc(/C=C/C(=O)NC(=S)NCCc2ccc(OC)c(OC)c2)cc1 | inconclusive [inhibitor, partial curve] | –
CC1CCN(S(=O)(=O)c2ccc3c(ccn3CCC(=O)N3CCCCC3)c2)CC1 | active: 6.51 µM | –
CCOC(=O)Cn1c2[n+](c3ccccc31)CC(O)CS2 (configuration not stated) | inactive | –
CC(NC(=O)c1ccc([N+](=O)[O-])cc1[N+](=O)[O-])c1ccc(-c2ccccc2)cc1 (configuration not stated) | active: 13 µM | –
O=C(CCC(=O)N1CCN(S(=O)(=O)c2ccc(Cl)cc2)CC1)NCc1cccc(C(F)(F)F)c1 | inconclusive [inhibitor, single point] | –
CC(=O)Oc1ccc(N(C(C)=O)S(=O)(=O)c2cccs2)c2ccccc12 | inconclusive [inhibitor, single point] | –
CC1CCN(C(=O)COC(=O)c2cccc(NS(=O)(=O)c3ccccc3)c2)CC1 | inactive | –
COc1ccc(C(=O)Nc2ccccc2[N+](=O)[O-])cc1S(=O)(=O)N1CCOCC1 | inconclusive [inhibitor, single point] | –
CCCCN(CCCNC(=O)c1ccc(CS(=O)(=O)c2ccc(OC)cc2)o1)Cc1ccccc1 | inconclusive [inhibitor, partial curve] | –
COc1ccccc1N1CCN(C(c2ccccn2)c2nnnn2C2CCCCC2)CC1 (configuration not stated) | inconclusive [inhibitor, single point] | –
CC(C)(C)OC(=O)N1CCC[C@H]1C(=O)N/N=C/c1cccc2nccnc12 | inconclusive [inhibitor, full curve, poor fit] | –
COc1cc2c(cc1OC)-c1cc(Nc3ccc(F)cc3)nc(=O)n1CC2 | inconclusive [inhibitor, single point] | –
O=[N+]([O-])c1ccc(N/N=C/c2ccc(O)c(O)c2O)c(S(=O)(=O)N2CCOCC2)c1 | inconclusive [inhibitor, single point] | –
COc1ccc(C(=O)NCC(c2cccnc2)N2CCN(c3ccccc3F)CC2)cc1OC (configuration not stated) | inconclusive [inhibitor, single point] | –
Cc1ccc(NC(=O)CC(O)(C(F)(F)F)C(F)(F)F)c(Br)c1 | inconclusive [inhibitor, single point] | –
CCC(=O)O[C@]1(C(=O)SCF)[C@H](C)C[C@H]2[C@@H]3C[C@H](F)C4=CC(=O)C=C[C@]4(C)[C@@]3(F)[C@@H](O)C[C@@]21C | inactive | –

SMILES | Potency | activity change, negative = growth inhibition
c1cncc(Nc2nc(-c3ccncc3)cs2)c1 | inconclusive [inhibitor, partial curve, poor fit] | –
Cc1ccc(NC(=O)C2CCN(S(=O)(=O)c3cccs3)CC2)cc1 | inconclusive [inhibitor, single point] | inconclusive: -32.6% [inhibitor]
CCN(CC(=O)Nc1ccc(NC(C)=O)cc1)C(=O)/C=C/c1cn(-c2ccccc2)nc1-c1ccc(C)cc1 | active: 20.6 µM | –
COc1ccccc1/C=C1\SC(=S)N(CCC(=O)NCCCn2ccnc2)C1=O | inactive | –
CC1CCCCN1CCCNc1ccc(C(CC(N)=O)NC(=O)Cc2ccc(Br)cc2)cc1[N+](=O)[O-] (configuration not stated) | inactive | –
CC(C)c1ccccc1OCC(=O)Nc1ccccc1C(=O)N1CCOCC1 | active: 16.4 µM | –
O=C(COc1cccc(C(F)(F)F)c1)Nc1ccc2[nH]ncc2c1 | inconclusive [inhibitor, single point] | –
COc1cc(/C=C/C(=O)OCC(=O)Nc2cc(C(F)(F)F)ccc2N2CCOCC2)ccc1O | inconclusive [inhibitor, partial curve] | –
CCc1ccc(/C(C)=N/Nc2cc(Cl)nc(C)n2)cc1 | inconclusive [inhibitor, partial curve, poor fit] | –
CCCc1nn2c(=O)cc(COC(=O)c3ccccc3NC(=O)C3CCCCC3)nc2s1 | inconclusive [inhibitor, single point] | –
C=CCOC(=O)C1=C(C)OC(N)=C(C#N)C1c1ccc(F)cc1 (configuration not stated) | active: 29.1 µM | –
CNC(=S)NNC(=O)c1oc2nc(-c3ccccc3)cc(C)c2c1N | – | inconclusive: -12.9% [inhibitor]
CC(=O)Oc1cccc(N2C(=O)c3ccc(C(=O)Nc4c[nH]c(=O)[nH]c4=O)cc3C2=O)c1 | inactive | –
COc1ccccc1-c1oc2ccccc2c1-c1ccc2c(c1)OCO2 | inconclusive [inhibitor, single point] | –
OCC[C@@H]1C[C@H](O)[C@@H](O)[C@]2(CCc3ccccc3O2)O1 | inactive | –
COc1ccc(N=C2NC(=O)/C(=C\C=C\c3ccco3)S2)cc1 | inconclusive [inhibitor, single point] | –
O=C(N/N=C/C1CC=CCC1)c1cc(Br)ccc1O (configuration not stated) | inactive | –
CC(C)NC(=O)N[C@H]1C=C[C@H](CC(=O)NCc2ccc(Oc3ccccc3)cc2)O[C@@H]1CO | – | inconclusive: -33.1% [inhibitor]
CC(C)n1c(=O)c2ccccc2n1Cc1cn(CCc2c[nH]c3ccccc23)nn1 | inconclusive [inhibitor, single point] | –
O=C(NCC1CCCO1)C(Cc1ccccc1)N1C(=O)C2C3C=CC(C4CC34)C2C1=O (configuration not stated) | inconclusive [inhibitor, single point] | –
CCc1ccc(OCC(=O)NNC(=O)C2CCC2)cc1 | inactive | –
O=C1CC(c2ccccc2Cl)CC(O)=C1C=Nc1ccccc1 (configuration not stated) | inconclusive [inhibitor, single point] | –

SMILES | Potency | activity change, negative = growth inhibition
Cc1ccc2ccccc2c1Cn1c(-n2ccnc2)nc2c1c(=O)n(C)c(=O)n2C | inconclusive [inhibitor, single point] | –
Cc1ccc(CC(=O)N2CCN(C(=O)C3CCCO3)CC2)cc1 (configuration not stated) | inactive | –
Cc1ccc(-n2c(SCc3nc(-c4ccc(Cl)cc4)no3)nnc2-c2ccncc2)cc1 | active: 16.4 µM | –
O=C(Nc1c(C(=O)N2CCC(N3CCCCC3)CC2)oc2ccccc12)c1ccc(F)cc1 | inconclusive [inhibitor, single point] | –
Cc1cccc(OCC(=O)Nc2ccc(N3CCN(C(=O)c4ccco4)CC3)cc2)c1C | inconclusive [inhibitor, partial curve] | –
COc1ccccc1NC(=S)NNC(=O)c1ccccc1 | inconclusive [inhibitor, single point] | –
CCN(CC)C(=O)C1=C(C)N(CCC2=CCCCC2)C(=O)C(CC(=O)NCc2ccco2)C1 (configuration not stated) | inconclusive [inhibitor, single point] | –
COc1cc2c(cc1NC(=O)COc1ccccc1OC)oc1ccccc12 | inconclusive [inhibitor, partial curve] | –
CCc1ccc(NC(=O)CN(c2ccc(C)cc2)S(=O)(=O)c2c(C)nn(C)c2C)cc1 | inconclusive [inhibitor, single point] | –
CC(Sc1nc(N)cc(=O)[nH]1)C(=O)N1CCOCC1 (configuration not stated) | inconclusive [inhibitor, single point] | –
CCCC(C(=O)Nc1ccc(S(=O)(=O)N2CCOCC2)cc1)c1ccccc1 (configuration not stated) | inconclusive [inhibitor, single point] | –
Cc1ccc(OCC(=O)NNC(=O)C2CCN(c3nc(C)cc(C)n3)CC2)cc1 | inactive | –
COc1ccc(C(=O)OCc2cc(=O)n3c(C)csc3n2)cc1F | inconclusive [inhibitor, single point] | –
O=C(Nc1ccc(S(=O)(=O)N2CCCC2)cc1)C1CC(=O)N(CCc2ccccc2)C1 (configuration not stated) | inconclusive [inhibitor, partial curve] | –
C/C(=N\NC(=S)NCc1ccccc1)c1ccccc1F | inconclusive [inhibitor, single point] | –
N#CCCN(C(=O)COC(=O)C12CC3CC(CC(O)(C3)C1)C2)c1ccc(F)cc1 | inactive | –
CCOC(=O)CNC(c1ccccc1)c1cc(Br)ccc1NC(=O)OCC (configuration not stated) | inconclusive [inhibitor, single point] | –
CCC(C(=O)NC1CCCC1)N(C(=O)Cn1nnc(-c2ccc(C)o2)n1)c1cnc2ccccc2c1 (configuration not stated) | inconclusive [inhibitor, single point] | –
CCOC(=O)N1CCN(C(=O)Cn2nc(C)n3nc(-c4ccccc4)cc3c2=O)CC1 | inconclusive [inhibitor, single point] | –
O=C(OCN1C(=O)c2ccccc2C1=O)c1cc(S(=O)(=O)N2CCOCC2)ccc1F | inactive | –
CC(=O)Nc1ccc(S(=O)(=O)NCC(CCC(=O)O)C(F)(F)F)cc1 (configuration not stated) | inconclusive [inhibitor, single point] | –
COc1ccc(/C=C2\SC(=S)N(CCC(=O)N3CCCCC3)C2=O)cc1 | inconclusive [inhibitor, single point] | –
